# Source: PubChem BioAssay AID588334 (Broad Institute, 2011)
# The campaign covered roughly 300,000 compounds. About 2,300 (0.77%) were called active. The shares of active, inactive and inconclusive entries below differ from those in the screen.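 Rule for the calls: active = mean activation of at least 80% with every replicate also reaching 80%; inconclusive = mean reaches 80% but some replicate falls short; inactive = the rest.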
# Test: activators of MITF-driven TRPM1 promoter reporter, primary screen, cell-based, SK-MEL-5, luciferase, single point (AID 588334);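 note: 0% = neutral control wells and 100% = parthenolide positive control wells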
# Details: SK-MEL-5 TRPM1-promoter luciferase, 24 h; at 12.5 µM; stronger effect = higher value
row,Structure (SMILES),activation
1,Cc1ccsc1C(=O)C1CCCN(Cc2cnc(N3CCCC3)s2)C1 (stereo unspecified),inactive: -9.75%
2,[O-]c1ccccc1-[n+]1c(-c2ccccc2)cc(-c2ccccc2)cc1-c1ccccc1,inactive: -42.2%
3,COc1ccc(-c2cc(=Nc3cccc(C(=O)O)c3)c3cc(C)ccc3o2)cc1,inconclusive: 80.1%
4,O=[N+]([O-])c1ccc(NC2CCCC2)c2ccncc12,inactive: -2.96%
5,CCc1ccc(N2C(=O)NC(=O)/C(=C/c3cccn3CCOc3ccc(C(C)CC)cc3)C2=O)cc1 (stereo unspecified),inactive: -4.02%
6,O=C1NC(=O)[C@]2(Cc3ccccc3N3CCN(c4ccccc4)CC32)C(=O)N1Cc1ccccc1 (stereo partly specified),inactive: -2.83%
7,COc1cccc(C2=NOC(C(=O)N3CCC4(CC3)OCCO4)C2)c1 (stereo unspecified),inconclusive: 80.6%
8,C=CCc1cc(OC)c2c(c1)OCO2,inactive: -7.79%
9,N#Cc1cc2c(nc1SCC(=O)Nc1cc(Cl)ccc1Cl)C1CCN2CC1,inactive: -5.05%
10,CN(C)C(=O)Oc1ccc2c(c1)O/C(=C\c1ccccc1)C2=O,inconclusive: 86.6%
11,COc1cccc(OCc2cc(C(=O)N3C[C@H]4C[C@@H](C3)c3cccc(=O)n3C4)no2)c1,active: 101%
12,CCCCCCOC(=O)c1ccccc1N,inconclusive: 83.7%
13,COc1cc(/C=C(/C)[N+](=O)[O-])ccc1OCc1ccccc1Cl,inactive: -89.9%
14,CCOC(=O)c1c(-n2c(C)cc(C=C3C(=O)NC(=S)NC3=O)c2C)sc2c1CCCC2,inactive: -62.4%
15,O=[N+]([O-])c1ccc(N2CCNCC2)c(Cl)c1,inactive: -9.74%
16,O=c1[nH]c(=O)n(-c2ccccc2F)c(O)c1/C=C1\C=Nc2ccccc21,inactive: -21.3%
